The other results are listed elsewhere or left out.
The sequences below were run on PfSIP2 AP2 domain 1 (GST-tagged) (assay: gcPBM binding intensity (ln(normalized median fluorescence intensity)); higher = stronger DNA binding).
In short: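 Each value is the highest Masliner-normalised natural-log median intensity across replicate spots of either orientation of a probe. The probes were primer-extended double-stranded 36-bp intergenic genomic sequences on an Agilent 4 × 180k array, alongside negative controls, exposed for 1 h to GST-tagged P. falciparum DNA-binding domains expressed in E. coli. Bound protein was picked up with Alexa488 anti-GST antibody and scanned at 488 nm.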

First: TGATTATAAAAGTAGGTGCTACAAAAATTACACATT [GTGCAC_site9530]
Second: ATAGATGTCTTCATATGTACATAAATTCAAGTATAT [XGTACX_site7492]
The “gcPBM binding intensity (ln)” value of the first is higher: 7.65 for the first, 7.02 for the second.

Compared with “CAAAATATTATGAATTGTACATATTTTAAAACGTTT [XGTACX_site1614]”, “TTATATTTTAAGAAATGTACATGATATAATTATCAA [XGTACX_site8693]” is higher in “gcPBM binding intensity (ln)” value: 6.86 for the first, 6.95 for the second.

First: TGGATGAGGACATACACACACACATAAGTTGATACA [CACACA_site3423]
Second: TATTTCTTATGAAGGACATGCAATATTATTTATCTC [TGCATGCA_site683]
The “gcPBM binding intensity (ln)” value of the first is higher: 7.06 for the first, 6.75 for the second.

Compared with “AATGAAAAGGAACATACACACCCCATATAAATATAT [CACACA_site7588]”, “TTTTTTTTAATTTTCTGTACAAATTTATATATACTA [XGTACX_site4251]” is lower in “gcPBM binding intensity (ln)” value: 7.2 for the first, 6.91 for the second.

Compared with TGATATAAAATTAAAGTGCAAAAAAAAAATAAAAAA, “ATAATATTATGAACCTGTACATAATTTTTCTTTTCT [XGTACX_site3377]” is lower in “gcPBM binding intensity (ln)” value: 8.36 for the first, 6.78 for the second.

Going from “TATAATTTTTTTGAATTATATATATATATATATAAT [XGTACX_negctrl_site26]” to “AGTATATTTCTAACTTGTACGAAATTAATAATTTAT [XGTACX_site6635]”, the “gcPBM binding intensity (ln)” value falls from 7.48 to 6.92.

Going from “TATATATAATATGAATGTACACAAAAAGGTAATACA [XGTACX_site6202]” to “AAAAAAAAGAAATAGACACACATATATTTTTAAACA [CACACA_site3954]”, the “gcPBM binding intensity (ln)” value falls from 7.2 to 6.71.

Going from “TTTTTTTCTTAAAGATGTACTTTTTAAAAACAATCT [XGTACX_site986]” to “CATTTTATAAAAACAAGTACCCAACATATATATAAT [XGTACX_site5955]”, the “gcPBM binding intensity (ln)” value rises from 6.83 to 7.23.

Compared with “AGACATATTCTTTTTACACACTTGAATAAAAAATAT [CACACA_site1205]”, “GATGAGGACAGACACACACACATAAGTTGATACATA [CACACA_site7580]” is higher in “gcPBM binding intensity (ln)” value: 6.99 for the first, 7.17 for the second.

Going from “GTTTTTACTTTTATCTGTACATAATACTACCAATAT [XGTACX_site5414]” to “CACGCGCACCAACACACACACACACCCATATATATA [CACACA_site2204]”, the “gcPBM binding intensity (ln)” value rises from 7.32 to 10.6.

Going from “GTTGGGTAATTCGTAACACACATAAAATATATATAA [CACACA_site3986]” to CTGTACACTTAAACGGTGCAAAAAGAAAAAAAAGAA, the “gcPBM binding intensity (ln)” value rises from 7 to 10.9.

Compared with “TGCCTATGACATGAATGTACATTAAAATTAAATAAA [XGTACX_site7126]”, “ACAGCTCTAGGACATGCATGTTATATAGAAAAAGAG [TGCATGCA_site703]” is higher in “gcPBM binding intensity (ln)” value: 6.96 for the first, 7.43 for the second.

First: AAGTTAATGTTTTGCGCACACTTCTTTTTAATATAA [CACACA_site3938]
Second: TTCTTTATATAAACAAGTACATATAAAATACATATA [XGTACX_site8036]
The “gcPBM binding intensity (ln)” value of the first is higher: 7.39 for the first, 7.02 for the second.

Going from “AAATACATATTTAGAAGTACATTTATACATTTAATA [XGTACX_site8871]” to “TTCATTAAAGTTATTACACACAGTTCTTCAACCAAA [CACACA_site7613]”, the “gcPBM binding intensity (ln)” value falls from 7.04 to 6.88.

Going from “TATATATTAAGATGCACACACAAGAAGTAATTATAA [CACACA_site5726]” to “ATTTTTTCTTATAAAAAAGAAAAAGAAAAAGAAAAA [CACACA_negctrl_site1216]”, the “gcPBM binding intensity (ln)” value falls from 8.21 to 7.09.

Compared with “TAAATATATAAATACACACACACCAAAGCAATAGAT [CACACA_site5605]”, “TCCATATGCATGTATTGTACTGTAATATATTAAAAA [XGTACX_site472]” is higher in “gcPBM binding intensity (ln)” value: 7.04 for the first, 7.12 for the second.

First: AAAAAAAAAAAAGAAACACACACATATATATATATA [CACACA_site8525]
Second: AGCAGTCGACAGGACAGTACACAGTAGCCAGGAAAT [XGTACX_site4929]
The “gcPBM binding intensity (ln)” value of the first is higher: 9.36 for the first, 6.62 for the second.

First: TGAATATAACAAATATGTACTTAAAATTGTTATATT [XGTACX_site5679]
Second: CACACTTGCTCCTGTTGTACATAACCATAAGCAACA [XGTACX_site2102]
The “gcPBM binding intensity (ln)” value of the first is lower: 6.95 for the first, 7.36 for the second.

Compared with “ATTATTAAAAATATGGGTACATATTATTGTTATATA [XGTACX_site1958]”, “TTATATTTTACAAATGCACACATAATTTTTTTTTTT [CACACA_site8890]” is higher in “gcPBM binding intensity (ln)” value: 6.89 for the first, 7.16 for the second.

Compared with “AAAAAAAAAAAAAAATGTACATGACATGACATGACA [XGTACX_site4020]”, “TAAAGAAATAAATACATACACACATATATATATATA [CACACA_site3363]” is higher in “gcPBM binding intensity (ln)” value: 7.31 for the first, 9.69 for the second.

First: AAACTTTACATTACTTGTACATATATTCTATATAAT [XGTACX_site8640]
Second: TTTGATAATAAGATATAATACTTAAATATATATATA [GTGCAC_negctrl_site339]
The “gcPBM binding intensity (ln)” value of the first is lower: 7.26 for the first, 8.85 for the second.

Compared with “AAATATATATTCAAAAGTACACAATTTGTTAATAAT [XGTACX_site8917]”, “TATTTTACGCGGTTTATAATGACATGTTCTATATTT [CACACA_negctrl_site1184]” is lower in “gcPBM binding intensity (ln)” value: 7 for the first, 6.94 for the second.
